Out of some 310,000 compounds screened, about 2,200 (0.71%) showed an effect of 50% or more. Effects have a minus sign here. The list shows a part of the results.
target: human ether-à-go-go-related gene (hERG) potassium channel (human, UniProt Q12809); assay: primary screen, population patch clamp on CHO cells stably expressing hERG
Sequence (Q12809 whole entry, looked up): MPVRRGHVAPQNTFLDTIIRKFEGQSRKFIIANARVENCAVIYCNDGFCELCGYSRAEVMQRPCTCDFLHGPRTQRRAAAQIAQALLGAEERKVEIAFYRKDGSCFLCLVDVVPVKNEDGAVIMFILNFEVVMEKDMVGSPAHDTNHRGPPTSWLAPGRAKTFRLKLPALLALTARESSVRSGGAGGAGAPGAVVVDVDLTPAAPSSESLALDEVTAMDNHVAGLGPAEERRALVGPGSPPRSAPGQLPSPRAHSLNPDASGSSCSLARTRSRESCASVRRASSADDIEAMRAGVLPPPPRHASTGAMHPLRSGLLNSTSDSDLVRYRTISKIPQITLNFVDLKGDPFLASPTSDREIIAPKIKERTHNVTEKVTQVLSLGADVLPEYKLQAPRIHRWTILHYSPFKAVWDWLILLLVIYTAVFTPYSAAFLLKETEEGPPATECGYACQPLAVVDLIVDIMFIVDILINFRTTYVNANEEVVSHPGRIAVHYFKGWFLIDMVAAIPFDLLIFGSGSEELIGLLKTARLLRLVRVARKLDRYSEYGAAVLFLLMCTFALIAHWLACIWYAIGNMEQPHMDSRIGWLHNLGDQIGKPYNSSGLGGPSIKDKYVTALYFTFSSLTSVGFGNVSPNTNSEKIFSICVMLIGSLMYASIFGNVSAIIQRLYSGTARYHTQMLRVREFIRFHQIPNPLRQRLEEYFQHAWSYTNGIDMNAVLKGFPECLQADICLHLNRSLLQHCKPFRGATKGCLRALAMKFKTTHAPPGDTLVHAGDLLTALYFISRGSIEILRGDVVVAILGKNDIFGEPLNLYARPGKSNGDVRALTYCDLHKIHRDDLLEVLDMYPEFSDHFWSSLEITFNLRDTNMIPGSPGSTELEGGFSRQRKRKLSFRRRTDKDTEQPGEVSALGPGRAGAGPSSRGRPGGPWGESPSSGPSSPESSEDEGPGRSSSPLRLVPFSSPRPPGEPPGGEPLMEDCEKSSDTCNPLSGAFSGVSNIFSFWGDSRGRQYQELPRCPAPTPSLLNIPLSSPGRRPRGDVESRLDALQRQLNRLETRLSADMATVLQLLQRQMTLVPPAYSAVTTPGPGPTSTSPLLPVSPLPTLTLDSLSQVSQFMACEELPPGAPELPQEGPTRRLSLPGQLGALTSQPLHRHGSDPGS

| SMILES | hERG current change (%, negative = inhibition) at 1uM [%] |
| --- | --- |
| CCCC(c1nnnn1Cc1ccc(OC)cc1)N1CCC(C(N)=O)CC1.Cl (centres unmarked) | -2.15 |
| COc1ccccc1-n1cnc2sc(C)c(C)c2c1=O | 15.2 |
| CCOC(=O)C(NC(=O)CC)(Nc1ccccc1)C(F)(F)F (centres unmarked) | 14.6 |
| CCCCNCCCOc1cccc(Cl)c1 | 5.13 |
| COc1cccc(NC(=O)CCCOc2cc(=O)n(C)c3ccccc23)c1 | 12 |
| CCOc1ccccc1OCC(=O)O | 12.1 |
| CCCOc1ccc(N2C(=O)CC(NCCNc3ccc([N+](=O)[O-])cn3)C2=O)cc1 (centres unmarked) | -57.8 |
| CCOCCCNS(=O)(=O)c1ccc(NC(=O)c2ccccc2)cc1 | 10.5 |
| CCOC(=O)Cn1nc(-c2ccc(Cl)cc2)ccc1=O | 1.57 |
| Cc1noc(C)c1COc1ccc(C(=O)N2CCN(c3ccccn3)CC2)cc1 | 1.21 |
| CC(=O)Nc1ccc(NC(=O)CN(C)S(=O)(=O)c2ccc3nc(C)sc3c2)cc1 | 3.13 |
| COC(=O)C1C/C(=N\NS(=O)(=O)c2ccc(C)cc2)c2ccccc2C1 (centres unmarked) | 3.64 |
| Cc1ccc(Sc2nnc(-c3ccccc3)cc2C#N)cc1 | 10.2 |
| CC12CCC(c3n[nH]c(=S)nc31)C2(C)C (centres unmarked) | 18.7 |
| O=C(Nc1ccccc1C(=O)N1CCCCC1)c1ccco1 | 16.7 |
| Cc1ccc2[nH]c(=O)c(CN(Cc3ccc4c(c3)OCO4)Cc3nnnn3C3CCCC3)cc2c1 | 9.47 |
| CN1CCc2c(sc3nc(SCC(=O)N4CCOCC4)nc(N)c23)C1 | 12.7 |
| CCOC(=O)CCCSc1nc2sc3c(c2c(=O)[nH]1)CCC3 | 14.8 |
| Cc1c(Br)c([N+](=O)[O-])nn1CC(=O)Nc1ccc2nc3n(c(=O)c2c1)CCCC3 | 20.9 |
| CCCOc1ccc(N2C(=O)CC(SC(=N)N3N=C(c4ccccc4)CC3c3ccccc3)C2=O)cc1 (centres unmarked) | 6.52 |

| SMILES | hERG current change (%, negative = inhibition) at 1uM [%] |
| --- | --- |
| O=C(COC(=O)c1ccccc1O)Nc1cccnc1Cl | 15.8 |
| O=C(O)C1C2C=CC(C2)C1C(=O)N1CCOCC1 (centres unmarked) | 1.69 |
| Cn1c(Cn2c(=O)sc3ccccc32)nnc1SCC(=O)N1CCN(c2ccccc2)CC1 | -20.7 |
| O=C1N(c2ccccc2C(F)(F)F)OC1(Cc1ccccc1)c1ccccc1 (centres unmarked) | 11.4 |
| Cc1ccccc1CN1CCN(C2CCC2)CC1CCO (centres unmarked) | 13.9 |
| COc1cc(NC(=O)c2ccccc2)c(OC)cc1NC(=O)CN1CCN(c2ccccn2)CC1 | 3.33 |
| COc1cc(CNn2cn[nH]c2=S)cc(Br)c1OCc1ccccc1F | 9.54 |
| CN1C(=S)SC(/[N+]([O-])=C\c2ccco2)C1(C)C (centres unmarked) | 10.4 |
| Cl.c1ccc(COc2ccc(CNCc3cccs3)cc2)cc1 | 11.7 |
| CCCC(=O)Nc1c2c(nn1-c1ccccc1)CSC2 | 10.3 |
| Cc1ccc(NC(=O)C(c2ccccc2)N(C)C)cc1Cl (centres unmarked) | 8.04 |
| O=C(c1ccco1)N1CCCC(c2nc3c(nnn3Cc3c(Cl)cccc3Cl)c(=O)[nH]2)C1 (centres unmarked) | 1.38 |
| Cc1ccc(SCCNC(=O)/C=C/c2cccc([N+](=O)[O-])c2)cc1 | 1.8 |
| Oc1ccc(/C=N/N2CCOCC2)c(O)c1O | 31.7 |
| C/C(=N\NC(=O)CSc1nc2ccccc2o1)c1ccc(O)cc1 | 8.71 |
| O=C(CC1N=C2c3ccccc3N=C(SCc3ccccc3Cl)N2C1=O)NCc1ccco1 (centres unmarked) | -5.05 |
| COc1cc(Br)c(CCNC(=O)c2ccco2)cc1OC | 11.8 |
| CCc1c(C)nc(SCC(=O)N2CCN(c3ccccc3)CC2)[nH]c1=O | 12.1 |
| Cn1nnc2cc(C(=O)NCc3ccc4c(c3)OCO4)ccc21 | 14.9 |
| Cc1ccc(-c2nc(N)n(C(=O)Cc3ccccc3)n2)cc1 | 18.5 |

| SMILES | hERG current change (%, negative = inhibition) at 1uM [%] |
| --- | --- |
| COc1cccc(C2C(C#N)=C(N)N(c3ncn[nH]3)C3=C2C(=O)CCC3)c1 (centres unmarked) | 12.7 |
| C=CCNC(=S)N(C1CCCCC1)C1CCCCC1 | 7.82 |
| NS(=O)(=O)c1ccc(Cl)cc1[N+](=O)[O-] | 16 |
| CC(C)N1C(=O)S/C(=C/c2ccccc2OCc2ccc(C(=O)O)cc2)C1=O | -3.84 |
| CC(=N)C1=C(O)CC(C)(C)CC1=O | 13.9 |
| Fc1cccc(COc2ccccc2C(=S)N2CCCC2)c1 | 9.03 |
| COc1ccc(NC(=O)c2cc(-c3cccs3)on2)cc1OC | 13.9 |
| c1ccc(CSCc2ccccc2)cc1 | 6.33 |
| CCOc1ccc(S(=O)(=O)Nc2ccc(C(=O)NN)cc2)cc1 | 7.88 |
| Cc1ccc2c(c1)N(CC(=O)NCCCN1CCOCC1)C(=O)c1cccnc1O2 | 3.79 |
| CN(C)c1nc(Oc2ccc(OCCOc3ccccc3)nn2)nc(N(C)C)n1 | 6.49 |
| COc1cccc(-n2c(SCC(=O)N3CCc4ccccc43)nnc2-c2c[nH]c3ccccc23)c1 | 2.71 |
| C/C(=N\NC(=O)c1ccccc1O)c1ccc(NC(=O)c2ccccc2)cc1 | 12 |
| N=C1C(c2nc3ccccc3c(=O)[nH]2)=C(O)CN1CCO | 17.8 |
| COc1ccc(NC(=O)N2CCCC2C(=O)NC2CCCC2)cc1 (centres unmarked) | 11.7 |
| O=C(NNc1nc2c(F)cccc2s1)c1cc(=O)c2ccccc2o1 | 11.1 |
| CN(CCC(=O)c1ccccc1)CCC(=O)c1ccccc1 | 6.51 |
| CCOc1ccc(NS(=O)(=O)c2ccc(C(=O)N3CCCC(C)C3)cc2)cc1 (centres unmarked) | 2.66 |
| COC(=O)c1oc2ccc(OC)cc2c1N | 14.9 |

Source: paper PMC4336329 (PLoS ONE, 2015)
